This note sets out measurements from the supplement of paper PMC11417369.

The list shows a part of the results.

The assay relates to PfAP2-HC AP2 domain (GST-tagged). As to the kind of experiment: gcPBM binding intensity (ln(normalized median fluorescence intensity)); higher = stronger DNA binding. The essentials: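 The binding buffer was 1× PBS containing 1% milk, 0.2 mg/ml BSA, 0.5% salmon testes DNA and 0.03% Triton X-100. In it, GST-tagged P. falciparum DNA-binding domains expressed in E. coli were applied for 1 h to an Agilent 4 × 180k array of primer-extended double-stranded 36-bp intergenic genomic probes plus negative controls. Binding intensity, read with Alexa488 anti-GST antibody and a 488 nm scan, is the highest Masliner-normalised natural-log median intensity across replicate spots of either probe orientation.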
Take “AAATGAATAAATAGGTCACACACAAATATATATAAA [CACACA_site8764]”: the “gcPBM binding intensity (ln)” value was determined as 10.6.

Take “ATATATATATATATATGTACATATACATATGTGCAA [XGTACX_site5604]”: the “gcPBM binding intensity (ln)” value is 9.78.

Consider “ATTTATTTTATTTTCACACACAAAAATAAATATCCG [CACACA_site2414]”, for which the “gcPBM binding intensity (ln)” value amounted to 9.9.

Turning to “ATAAAAAAAAAAAAAAGTACACATATAAAAGTATTG [XGTACX_site8265]”, the “gcPBM binding intensity (ln)” value is 9.6.

Regarding “TAAATAATATCTATCACACACGCATAAATACAGATA [CACACA_site5449]”, the “gcPBM binding intensity (ln)” value came out at 10.3.

Consider “ATTCTACCACGCGATATACACACTTGTAGACATCTT [CACACA_site188]”, for which the “gcPBM binding intensity (ln)” value was found to be 9.95.

Turning to “TATAATGTATGTAGTGCACACCTCTATAATATATTA [CACACA_site8560]”, the “gcPBM binding intensity (ln)” value is 9.85.

Regarding “AAATTTATGTGTGCCTGTACATATCAAAGATTTAAG [XGTACX_site8547]”, the “gcPBM binding intensity (ln)” value came out at 9.7.

“CGCAATTAAAATATGTGTCCTCATTTTATAACATTT [XGTACX_site5340]”: the “gcPBM binding intensity (ln)” value came out at 9.61.

Take “TAATTTCTTAGGTATTGTACAAATATTATATGATAT [XGTACX_site256]”: the “gcPBM binding intensity (ln)” value was found to be 9.5.

With “ATAATAAAAAAAATTAGTACATATATAAATATAAAT [XGTACX_site1937]”, the “gcPBM binding intensity (ln)” value is 9.74.

As for “ATATATCTATAAAAGGCTTCCCACTTTTTTTGTCAA [TGCATGCA_negctrl_site332]”, the “gcPBM binding intensity (ln)” value amounted to 9.43.

For “AGTACATTTTTGTGTGTGCACTAATATTATATACTT [GTGCAC_site9568]”, the “gcPBM binding intensity (ln)” value was 10.

“AATAAAATATAATAATTAATATATATATATATATAA [GTGCAC_negctrl_site457]”: the “gcPBM binding intensity (ln)” value was found to be 9.53.

For the sequence “TTATGTTGTAAATACACACATACATATACATACACA [CACACA_site733]”, the “gcPBM binding intensity (ln)” value turned out to be 9.91.

For the sequence “TATGTGAAATAAGGATGTACAATTTTGATTTCCCCA [XGTACX_site8389]”, the “gcPBM binding intensity (ln)” value is 9.57.

On to “GTGTACAAAATATGGTAATAAAGTAGTTACATGAAT [CACACA_negctrl_site1775]”, for which the “gcPBM binding intensity (ln)” value stood at 9.86.

On to “CTAAATTGTTAATAGAGTACATTTGTATAATATAAG [XGTACX_site594]”, for which the “gcPBM binding intensity (ln)” value turned out to be 9.51.

With “TTTTAATAATTTATAAAAAAAAAAAAAAAATAAATA [TGCATGCA_negctrl_site419]”, the “gcPBM binding intensity (ln)” value was found to be 9.36.

On to “TTTAATGAAAGAAACACATACGTATCAAAATATATG [TGCATGCA_negctrl_site510]”, for which the “gcPBM binding intensity (ln)” value turned out to be 9.56.

As for “TACGTTGTATATTTTTGTACATATTGAATTACAAAA [XGTACX_site5906]”, the “gcPBM binding intensity (ln)” value came out at 9.54.

For the sequence “TTCATATGGAATAAAAGTACGTATTAAAACAATTTT [XGTACX_site8742]”, the “gcPBM binding intensity (ln)” value was determined as 9.45.

“GAACAATATATTTGCACACAAAAAATATATATTTAT [CACACA_site3317]”: the “gcPBM binding intensity (ln)” value amounted to 10.1.

Regarding “GGATAAAAAATATGTACACACATATAGATATCTATA [CACACA_site2693]”, the “gcPBM binding intensity (ln)” value was 9.8.

As for GTTTACATCATTCTGGTGCAAAAAAAAAAAAAAATA, the “gcPBM binding intensity (ln)” value is 9.45.

In the case of “GAATACTCATTTCTTTGTACATATATATGTGTATTT [XGTACX_site6411]”, the “gcPBM binding intensity (ln)” value stood at 10.

“TAGATTTAAAAAAAAAAAAAATTTTTTTTTTTTTTT [TGCATGCA_negctrl_site593]”: the “gcPBM binding intensity (ln)” value was determined as 9.01.

With “ATACAAGTATTAATTACACACTCAAAAAGAAAAAAC [CACACA_site5287]”, the “gcPBM binding intensity (ln)” value was 9.87.

In the case of “AAAGCAAATAATAAGTGTACGGGTCAATATATGCGT [XGTACX_site1519]”, the “gcPBM binding intensity (ln)” value turned out to be 10.2.

In the case of “CATATAAACAATAACACACACCTAGGTACATGGAAA [CACACA_site4615]”, the “gcPBM binding intensity (ln)” value was 10.2.

Consider “CTTTTTAATTTATCGACACACGCATGAATAGAAATT [CACACA_site9112]”, for which the “gcPBM binding intensity (ln)” value was 9.6.

For “GTTATAAAATATGGCACACAAAATGTAAGTAAATGA [CACACA_site1458]”, the “gcPBM binding intensity (ln)” value came to 9.95.

Regarding “ATATATTTTGTTATGGTGCGTAAGAAATATATTCTT [GTGCAC_site9825]”, the “gcPBM binding intensity (ln)” value is 9.59.

With “GATCTTTAAATTTATTGTACATAAATGTATATGTTA [XGTACX_site1107]”, the “gcPBM binding intensity (ln)” value was 9.7.

As for “TATCACATATTATGATGTACAAGGATTCTGACTAAT [XGTACX_site1196]”, the “gcPBM binding intensity (ln)” value amounted to 9.52.

“TTTATTTATCTGAACACATGCAGACAAATAACATAT [TGCATGCA_site929]”: the “gcPBM binding intensity (ln)” value amounted to 9.41.

“ATTATATATAAACACACACACATGCATGCACATATA [CACACA_site4237]”: the “gcPBM binding intensity (ln)” value came to 10.2.

Take “CATAAACTTTATAACACACACTTATAAATATAAATA [CACACA_site6646]”: the “gcPBM binding intensity (ln)” value turned out to be 10.2.

Consider “ATATCTATAATAAACACACACATATACCTATAGGTA [CACACA_site7596]”, for which the “gcPBM binding intensity (ln)” value was found to be 10.1.

In the case of “GGGCATATAATATAAAGTACAGGACTATAAAAATAT [XGTACX_site4481]”, the “gcPBM binding intensity (ln)” value came to 9.57.

On to “TATTATATGTATTGCACACCTTCAACAACTACTTCT [CACACA_site655]”, for which the “gcPBM binding intensity (ln)” value was found to be 9.97.

Consider “ATTGTGCACTTATATGCACACATTTTAGTTTTTTTT [CACACA_site2028]”, for which the “gcPBM binding intensity (ln)” value was 9.89.

Regarding “TATATATTATAAAATAGTACACAGAATTTAAATATA [XGTACX_site100]”, the “gcPBM binding intensity (ln)” value worked out at 9.57.

Turning to “TATATATAGAAACACACACACATATATATATATTTT [CACACA_site2540]”, the “gcPBM binding intensity (ln)” value is 10.5.

With “TTGTTGATTGTTATTTATCATTAGATGTAAAATATG [CACACA_negctrl_site927]”, the “gcPBM binding intensity (ln)” value is 9.6.

For the sequence “TCTTTTAAACAGTACACACACACATATATATATATA [CACACA_site924]”, the “gcPBM binding intensity (ln)” value stood at 10.7.

For the sequence “AATATTTTTTTATAAACACACATATAAATAAATATA [CACACA_site7622]”, the “gcPBM binding intensity (ln)” value amounted to 9.51.

As for “TTATGAAATAGAATAACACACATATTTATATATGTG [CACACA_site2050]”, the “gcPBM binding intensity (ln)” value came out at 9.65.

Regarding “CATAGAATAATTTATTGTACGTGCATGCTATTTTTT [XGTACX_site8984]”, the “gcPBM binding intensity (ln)” value is 9.78.

With “TATACATTTTTATAAAGTACACAAAAATAAATATAA [XGTACX_site1647]”, the “gcPBM binding intensity (ln)” value was 9.59.

“ATTAAATATATGATGTGTACATATTCGTGTATGTTT [XGTACX_site2141]”: the “gcPBM binding intensity (ln)” value was 9.75.

As to “AAACAGAATACATATACACACATACAAAAAAGTGCA [CACACA_site8235]”, the “gcPBM binding intensity (ln)” value stood at 10.1.

As to “AAAATAAATTTTTATGTTATATATACAATTTCTCTA [CACACA_negctrl_site1760]”, the “gcPBM binding intensity (ln)” value is 9.37.

For the sequence “TATAATATTTATATAACACACATATATATTTATTTA [CACACA_site280]”, the “gcPBM binding intensity (ln)” value is 9.67.

As to “AATGCTATCTTCTTATTTTTCATACACAACATGAAC [CACACA_negctrl_site1809]”, the “gcPBM binding intensity (ln)” value stood at 9.72.

As for “TATTTTTTTAAAAATACACACATAAAATCATGAAAA [CACACA_site1085]”, the “gcPBM binding intensity (ln)” value amounted to 9.55.
